Results from paper PMC4599808.
No constants are given. Whether binding was seen depends on the method and setting. In cells and extracts the contact can be indirect. Some binding calls cover weakened binding; strength is not graded here. For some of these results: Where a sequence is shown, tags or fusion partners need not be part of it. One block for each binder: values may come before it.

What was measured:
[1] = biological target: Ty1 Gag (wild type, Gag-p49/p45) (S. cerevisiae) (UniProt P08405); experiment: co-sedimentation; VLP assembly of Gag without p22: total protein extracts of S. paradoxus (1 Ty1 copy strain, or DG3508 with empty vector) expressing pGTy1his3-AI; 7-47% continuous sucrose gradient, 25,000 rpm, 3 h, 4°C; fractions immunoblotted for Gag
[2] = biological target: T1, p22-V5/p18-V5 (S. cerevisiae) (UniProt P08405); experiment: co-sedimentation; total protein extracts of S. paradoxus DG3508 co-expressing pGTy1his3-AI and pGp22-V5; 7-47% continuous sucrose gradient, SW41, 25,000 rpm, 3 h, 4°C; fractions immunoblotted with p18 and V5 antibodies
T1 sequence: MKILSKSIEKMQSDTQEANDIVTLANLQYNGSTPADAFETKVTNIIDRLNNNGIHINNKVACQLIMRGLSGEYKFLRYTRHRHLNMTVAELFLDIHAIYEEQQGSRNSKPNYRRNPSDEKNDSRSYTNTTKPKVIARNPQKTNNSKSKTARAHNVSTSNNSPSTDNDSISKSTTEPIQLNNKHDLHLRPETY

[3] = biological target: T1, p22-V5/p18-V5 (S. cerevisiae); experiment: co-IP; V5 antibody crosslinked to Protein A/G agarose; total cell extracts of Ty1-less S. paradoxus (DG3508) co-expressing pGTy1his3-AI and pGp22-V5; 2 h at 4°C, washed with IP Lysis buffer; Gag detected by immunoblot with p18 antibody
[4] = biological target: Ty1 Gag I343K (S. cerevisiae) (UniProt P08405); experiment: co-sedimentation; VLP assembly of Gag without p22: total protein extracts of S. paradoxus (1 Ty1 copy strain, or DG3508 with empty vector) expressing pGTy1his3-AI; 7-47% continuous sucrose gradient, 25,000 rpm, 3 h, 4°C; fractions immunoblotted for Gag
[5] = biological target: Ty1 Gag I201T (S. cerevisiae) (UniProt P08405); experiment: as above
[6] = biological target: Ty1 Gag L252R (S. cerevisiae) (UniProt P08405); experiment: as above

binding [1]: binds
binding [2]: binds
binding [3]: binds
B1: Ty1 Gag (wild type, Gag-p49/p45) (protein, UniProt P08405 1-440)
chain: MESQQLSQHSPNSHGSACASVTSKEVHTNQDPLDVSASKTEECEKASTKANSQQTTTPASSAVPENPHHASPQPASVPPPQNGPYPQQCMMTQNQANPSGWSFYGHPSMIPYTPYQMSPMYFPPGPQSQFPQYPSSVGTPLSTPSPESGNTFTDSSSADSDMTSTKKYVRPPPMLTSPNDFPNWVKTYIKFLQNSNLGGIIPTVNGKPVRQITDDELTFLYNTFQIFAPSQFLPTWVKDILSVDYTDIMKILSKSIEKMQSDTQEANDIVTLANLQYNGSTPADAFETKVTNIIDRLNNNGIHINNKVACQLIMRGLSGEYKFLRYTRHRHLNMTVAELFLDIHAIYEEQQGSRNSKPNYRRNPSDEKNDSRSYTNTTKPKVIARNPQKTNNSKSKTARAHNVSTSNNSPSTDNDSISKSTTEPIQLNNKHDLHLRPETY

binding [4]: no binding
B2: Ty1 Gag I343K (protein, UniProt P08405 1-440)
chain: MESQQLSQHSPNSHGSACASVTSKEVHTNQDPLDVSASKTEECEKASTKANSQQTTTPASSAVPENPHHASPQPASVPPPQNGPYPQQCMMTQNQANPSGWSFYGHPSMIPYTPYQMSPMYFPPGPQSQFPQYPSSVGTPLSTPSPESGNTFTDSSSADSDMTSTKKYVRPPPMLTSPNDFPNWVKTYIKFLQNSNLGGIIPTVNGKPVRQITDDELTFLYNTFQIFAPSQFLPTWVKDILSVDYTDIMKILSKSIEKMQSDTQEANDIVTLANLQYNGSTPADAFETKVTNIIDRLNNNGIHINNKVACQLIMRGLSGEYKFLRYTRHRHLNMTVAELFLDKHAIYEEQQGSRNSKPNYRRNPSDEKNDSRSYTNTTKPKVIARNPQKTNNSKSKTARAHNVSTSNNSPSTDNDSISKSTTEPIQLNNKHDLHLRPETY

binding [3]: binds
B3: Ty1 Gag K186Q (protein, UniProt P08405 1-440)
chain: MESQQLSQHSPNSHGSACASVTSKEVHTNQDPLDVSASKTEECEKASTKANSQQTTTPASSAVPENPHHASPQPASVPPPQNGPYPQQCMMTQNQANPSGWSFYGHPSMIPYTPYQMSPMYFPPGPQSQFPQYPSSVGTPLSTPSPESGNTFTDSSSADSDMTSTKKYVRPPPMLTSPNDFPNWVQTYIKFLQNSNLGGIIPTVNGKPVRQITDDELTFLYNTFQIFAPSQFLPTWVKDILSVDYTDIMKILSKSIEKMQSDTQEANDIVTLANLQYNGSTPADAFETKVTNIIDRLNNNGIHINNKVACQLIMRGLSGEYKFLRYTRHRHLNMTVAELFLDIHAIYEEQQGSRNSKPNYRRNPSDEKNDSRSYTNTTKPKVIARNPQKTNNSKSKTARAHNVSTSNNSPSTDNDSISKSTTEPIQLNNKHDLHLRPETY

binding [5]: binds
B4: Ty1 Gag I201T (protein, UniProt P08405 1-440)
chain: MESQQLSQHSPNSHGSACASVTSKEVHTNQDPLDVSASKTEECEKASTKANSQQTTTPASSAVPENPHHASPQPASVPPPQNGPYPQQCMMTQNQANPSGWSFYGHPSMIPYTPYQMSPMYFPPGPQSQFPQYPSSVGTPLSTPSPESGNTFTDSSSADSDMTSTKKYVRPPPMLTSPNDFPNWVKTYIKFLQNSNLGGITPTVNGKPVRQITDDELTFLYNTFQIFAPSQFLPTWVKDILSVDYTDIMKILSKSIEKMQSDTQEANDIVTLANLQYNGSTPADAFETKVTNIIDRLNNNGIHINNKVACQLIMRGLSGEYKFLRYTRHRHLNMTVAELFLDIHAIYEEQQGSRNSKPNYRRNPSDEKNDSRSYTNTTKPKVIARNPQKTNNSKSKTARAHNVSTSNNSPSTDNDSISKSTTEPIQLNNKHDLHLRPETY

binding [6]: binds
B5: Ty1 Gag L252R (protein, UniProt P08405 1-440)
chain: MESQQLSQHSPNSHGSACASVTSKEVHTNQDPLDVSASKTEECEKASTKANSQQTTTPASSAVPENPHHASPQPASVPPPQNGPYPQQCMMTQNQANPSGWSFYGHPSMIPYTPYQMSPMYFPPGPQSQFPQYPSSVGTPLSTPSPESGNTFTDSSSADSDMTSTKKYVRPPPMLTSPNDFPNWVKTYIKFLQNSNLGGIIPTVNGKPVRQITDDELTFLYNTFQIFAPSQFLPTWVKDILSVDYTDIMKIRSKSIEKMQSDTQEANDIVTLANLQYNGSTPADAFETKVTNIIDRLNNNGIHINNKVACQLIMRGLSGEYKFLRYTRHRHLNMTVAELFLDIHAIYEEQQGSRNSKPNYRRNPSDEKNDSRSYTNTTKPKVIARNPQKTNNSKSKTARAHNVSTSNNSPSTDNDSISKSTTEPIQLNNKHDLHLRPETY
